The source of these data is the antibiotic and cytotoxicity screens of Wong et al. (2023).

The other results are listed elsewhere or left out.

For the first assay, the system named is HSkMC (human skeletal muscle cells). Kind of assay: cytotoxicity call (relative viability < 0.9). To be noted: 10 µM.
Regarding `C[C@H](CO)N1C[C@H](C)[C@H](CN(C)Cc2ccc(Oc3ccccc3)cc2)Oc2c(NC(=O)Nc3ccc(F)cc3)cccc2C1=O`, the cytotoxicity call was “inactive”.

In the case of `CN1C(=O)C[C@@H]2[C@@H]1CCN2C(=O)c1csnn1`, the cytotoxicity call is “inactive”. The same measure, in the same setting: under `COC(=O)[C@H](Cc1ccccc1)N1CC2=CCCC=C[C@H]2[C@@H]1[C@@H](O)CCn1cc(-c2ccc(C(=O)NO)s2)nn1` stands “inactive”; under `COc1ccc(S(=O)(=O)N(C)C[C@H]2OCCCC[C@H](C)Oc3ccc(NC(=O)C4CCCCC4)cc3C(=O)N([C@@H](C)CO)C[C@H]2C)cc1`, “inactive”; under `C[C@H]1CN([C@@H](C)CO)C(=O)c2cccc(NS(=O)(=O)c3ccc(F)cc3)c2O[C@@H]1CN(C)C(=O)Nc1cccc2ccccc12`, “inactive”. As to `O=C(OCc1ccco1)c1ccc(-c2ccc(Cl)cc2)s1`, the cytotoxicity call is “inactive”. Take `COc1ccc2c3c(n(c2c1)C)[C@H](CO)N(Cc1cc(cc(c1)OC)OC)C[C@]13CCN(CC1)C(=O)Nc1cccc(c1)F`: the cytotoxicity call is “inactive”. For the molecule `O=S1(=O)CCOCC1`, the cytotoxicity call was “inactive”. Consider `C[C@H](CO)N1C[C@H](C)[C@H](CN(C)C(=O)c2ccc3c(c2)OCO3)Oc2ncc(C#Cc3ccccc3F)cc2C1=O`, for which the cytotoxicity call was “inactive”. Still for that read-out and setting: in the case of `O=C(N[C@@H]1C=C[C@@H](CC(=O)N2CCOCC2)O[C@@H]1CO)c1ccc2c(c1)OCO2` it was “inactive”; in that of `C[C@H]1CN([C@@H](C)CO)C(=O)c2cc(NS(=O)(=O)c3cn(C)cn3)ccc2O[C@H]1CN(C)S(=O)(=O)c1ccccc1`, “inactive”. Regarding `CNC(=O)CN1C(=O)c2ccccc2S1(=O)=O`, the cytotoxicity call was “inactive”. The same measure, in the same setting: in the case of `Cc1ccc(S(=O)(=O)Nc2ccc3c(c2)C(=O)N([C@@H](C)CO)C[C@H](C)[C@H](CN(C)C(=O)NC(C)C)O3)cc1` it was “inactive”; in that of `COc1cc2nc(N3CCN(C(=O)C4COc5ccccc5O4)CC3)nc(N)c2cc1OC.CS(=O)(=O)O` (stereo unspecified), “inactive”. Same read-out and setting: in the case of `COCC(=O)Nc1ccc2c(c1)OC[C@@H](C)N(C(=O)Cc1ccccn1)C[C@H](C)[C@@H](OC)CN(C)C2=O` it was “inactive”; in that of `CC(C)CC#Cc1ccc2c(c1)O[C@H](CN(C)C(=O)C1CCOCC1)[C@@H](C)CN([C@@H](C)CO)S2(=O)=O`, “inactive”. Same read-out and setting: under `Cc1noc(C)c1S(=O)(=O)Nc1ccc2c(c1)C(=O)N([C@H](C)CO)C[C@@H](C)[C@H](CN(C)Cc1ccc(Oc3ccccc3)cc1)O2` stands “inactive”.

Turning to `C[C@H]1CN([C@@H](C)CO)C(=O)c2cc(NS(=O)(=O)c3cn(C)cn3)ccc2O[C@H]1CN(C)S(=O)(=O)c1ccc(Cl)cc1`, the cytotoxicity call was “inactive”.

On to `NCC[C@H]1CC[C@@H](NC(=O)Cc2ccncc2)[C@H](CO)O1`, for which the cytotoxicity call is “inactive”. For the molecule `COCC#Cc1ccc2c(c1)O[C@H](CN(C)C(=O)CN(C)C)[C@H](C)CN([C@@H](C)CO)S2(=O)=O`, the cytotoxicity call was “inactive”.

For `C[C@@H]1O[C@@H](O[C@H]2[C@H](O)[C@@H](O)[C@H](OC(=O)[C@]34CCC(C)(C)C[C@H]3C3=CC[C@H]5[C@@]6(C)CC[C@H](O[C@@H]7O[C@H](C(=O)O)[C@@H](O)[C@H](O)[C@H]7O)C(C)(C)[C@@H]6CC[C@@]5(C)[C@]3(C)CC4)O[C@@H]2CO)[C@H](O)[C@H](O)[C@H]1O`, the cytotoxicity call was “inactive”.

Take `C[C@@H]1CN([C@@H](C)CO)C(=O)c2cccc(NC(=O)c3nc4ccccc4s3)c2O[C@@H]1CN(C)Cc1ccc(Cl)c(Cl)c1`: the cytotoxicity call was “inactive”. For `CN1CCN(C)[C@@H](CO)C1`, the cytotoxicity call was “inactive”.

`COc1ccc(S(=O)(=O)Nc2ccc3c(c2)C(=O)N([C@H](C)CO)C[C@H](C)[C@H](CN(C)C(=O)Nc2cccc4ccccc24)OCCCC[C@@H](C)O3)cc1`: the cytotoxicity call was “inactive”. The same measure, in the same setting: under `C[C@@H]1CN([C@@H](C)CO)C(=O)c2ccccc2-c2ccccc2CO[C@@H]1CN(C)Cc1cccc2c1OCCCO2` stands “inactive”; under `C[C@H](CO)N1C[C@H](C)[C@@H](CN(C)C(=O)CN2CCOCC2)Oc2cc(Br)ccc2S1(=O)=O`, “inactive”; under `C[C@H]1CN([C@@H](C)CO)C(=O)c2cccc(NC(=O)Nc3ccc(C(F)(F)F)cc3)c2O[C@@H]1CN(C)C(=O)Nc1ccccc1`, “inactive”. On the same count and under the same terms, under `COc1ccc(S(=O)(=O)N(C)C[C@H]2Oc3ccc(NS(=O)(=O)c4cn(C)cn4)cc3C(=O)N([C@@H](C)CO)C[C@H]2C)cc1` stands “inactive”. On the same count and under the same terms, in the case of `C[C@H](CO)N1C[C@H](C)[C@@H](CN(C)S(=O)(=O)c2ccccc2)OCCCC[C@H](C)Oc2ccc(NC(=O)C3CCCCC3)cc2C1=O` it was “inactive”.

Another assay deals with HepG2. Kind of assay: cytotoxicity call (relative viability < 0.9). To be noted: 10 µM.
As to `COc1ccc(S(=O)(=O)Nc2ccc3c(c2)C(=O)N([C@H](C)CO)C[C@H](C)[C@@H](CN(C)C(=O)NC(C)C)O3)cc1`, the cytotoxicity call is “inactive”. With `C[C@@H]1CCCCO[C@@H](CN(C)CC2CC2)[C@@H](C)CN([C@H](C)CO)C(=O)c2cc(NS(=O)(=O)c3ccc(Cl)cc3)ccc2O1`, the cytotoxicity call is “inactive”.

`CC(C)(C)Cc1ccc(OCCCC(=O)O)c(CC(C)(C)C)c1`: the cytotoxicity call is “inactive”. Take `COc1ccc(NC(=O)N(C)C[C@H]2OCCCC[C@@H](C)Oc3ccc(NS(=O)(=O)c4cccs4)cc3C(=O)N([C@@H](C)CO)C[C@@H]2C)cc1`: the cytotoxicity call was “inactive”. The same measure, in the same setting: under `C[C@H]1CN([C@@H](C)CO)C(=O)c2cc(NC(=O)Nc3ccc(C(F)(F)F)cc3)ccc2O[C@@H]1CN(C)C(=O)Nc1ccccc1` stands “inactive”. The same measure, in the same setting: in the case of `C[C@H](CO)N1C[C@H](C)[C@@H](CN(C)Cc2ccc(-c3ccccc3)cc2)Oc2c(NS(=O)(=O)c3ccc(F)cc3)cccc2C1=O` it was “active”; in that of `C[C@H]1CCCCO[C@H](CN(C)C(=O)Nc2ccccc2)[C@@H](C)CN([C@@H](C)CO)C(=O)c2cc(NC(=O)C3CCCCC3)ccc2O1`, “inactive”; in that of `CC(C)NC(=O)Nc1ccc2c(c1)C(=O)N(C)[C@H]1CC[C@H](CC(=O)NCc3ccc(F)cc3)O[C@H]1CO2`, “inactive”. Turning to `COc1ccc(-n2cc(C(=O)NO)nn2)cc1`, the cytotoxicity call was “active”. With `O=C(C[C@@H]1CC[C@H]2[C@@H](COC[C@H](O)CN2S(=O)(=O)c2ccc(Cl)cc2)O1)NCC1CCCCC1`, the cytotoxicity call is “inactive”. Same read-out and setting: under `COc1ccc2c3c([nH]c2c1)[C@H](CO)N(C[C@]13CCN(CC1)C(=O)c1cnccn1)C(=O)c1cnccn1` stands “inactive”; under `C[C@H](CO)N1C[C@H](C)[C@H](CN(C)Cc2ccc(Oc3ccccc3)cc2)Oc2c(NC(=O)Nc3ccc(F)cc3)cccc2C1=O`, “inactive”.

On to `CN1C(=O)C[C@@H]2[C@@H]1CCN2C(=O)c1csnn1`, for which the cytotoxicity call is “inactive”. Still for that read-out and setting: under `COC(=O)[C@H](Cc1ccccc1)N1CC2=CCCC=C[C@H]2[C@@H]1[C@@H](O)CCn1cc(-c2ccc(C(=O)NO)s2)nn1` stands “inactive”; under `COc1ccc(S(=O)(=O)N(C)C[C@H]2OCCCC[C@H](C)Oc3ccc(NC(=O)C4CCCCC4)cc3C(=O)N([C@@H](C)CO)C[C@H]2C)cc1`, “inactive”; under `C[C@H]1CN([C@@H](C)CO)C(=O)c2cccc(NS(=O)(=O)c3ccc(F)cc3)c2O[C@@H]1CN(C)C(=O)Nc1cccc2ccccc12`, “inactive”. As to `O=C(OCc1ccco1)c1ccc(-c2ccc(Cl)cc2)s1`, the cytotoxicity call was “inactive”. As for `COc1ccc2c3c(n(c2c1)C)[C@H](CO)N(Cc1cc(cc(c1)OC)OC)C[C@]13CCN(CC1)C(=O)Nc1cccc(c1)F`, the cytotoxicity call is “inactive”.

`O=S1(=O)CCOCC1`: the cytotoxicity call is “inactive”. The same measure, in the same setting: in the case of `C[C@H](CO)N1C[C@H](C)[C@H](CN(C)C(=O)c2ccc3c(c2)OCO3)Oc2ncc(C#Cc3ccccc3F)cc2C1=O` it was “inactive”; in that of `O=C(N[C@@H]1C=C[C@@H](CC(=O)N2CCOCC2)O[C@@H]1CO)c1ccc2c(c1)OCO2`, “inactive”; in that of `C[C@H]1CN([C@@H](C)CO)C(=O)c2cc(NS(=O)(=O)c3cn(C)cn3)ccc2O[C@H]1CN(C)S(=O)(=O)c1ccccc1`, “inactive”. Same read-out and setting: under `CNC(=O)CN1C(=O)c2ccccc2S1(=O)=O` stands “inactive”. For the molecule `Cc1ccc(S(=O)(=O)Nc2ccc3c(c2)C(=O)N([C@@H](C)CO)C[C@H](C)[C@H](CN(C)C(=O)NC(C)C)O3)cc1`, the cytotoxicity call was “inactive”. Turning to `COc1cc2nc(N3CCN(C(=O)C4COc5ccccc5O4)CC3)nc(N)c2cc1OC.CS(=O)(=O)O` (stereo unspecified), the cytotoxicity call was “inactive”. On the same count and under the same terms, under `COCC(=O)Nc1ccc2c(c1)OC[C@@H](C)N(C(=O)Cc1ccccn1)C[C@H](C)[C@@H](OC)CN(C)C2=O` stands “inactive”. Same read-out and setting: in the case of `CC(C)CC#Cc1ccc2c(c1)O[C@H](CN(C)C(=O)C1CCOCC1)[C@@H](C)CN([C@@H](C)CO)S2(=O)=O` it was “inactive”; in that of `Cc1noc(C)c1S(=O)(=O)Nc1ccc2c(c1)C(=O)N([C@H](C)CO)C[C@@H](C)[C@H](CN(C)Cc1ccc(Oc3ccccc3)cc1)O2`, “inactive”; in that of `C[C@H]1CN([C@@H](C)CO)C(=O)c2cc(NS(=O)(=O)c3cn(C)cn3)ccc2O[C@H]1CN(C)S(=O)(=O)c1ccc(Cl)cc1`, “inactive”. Still for that read-out and setting: in the case of `NCC[C@H]1CC[C@@H](NC(=O)Cc2ccncc2)[C@H](CO)O1` it was “inactive”. Consider `COCC#Cc1ccc2c(c1)O[C@H](CN(C)C(=O)CN(C)C)[C@H](C)CN([C@@H](C)CO)S2(=O)=O`, for which the cytotoxicity call is “inactive”. Same read-out and setting: in the case of `C[C@@H]1O[C@@H](O[C@H]2[C@H](O)[C@@H](O)[C@H](OC(=O)[C@]34CCC(C)(C)C[C@H]3C3=CC[C@H]5[C@@]6(C)CC[C@H](O[C@@H]7O[C@H](C(=O)O)[C@@H](O)[C@H](O)[C@H]7O)C(C)(C)[C@@H]6CC[C@@]5(C)[C@]3(C)CC4)O[C@@H]2CO)[C@H](O)[C@H](O)[C@H]1O` it was “inactive”. On the same count and under the same terms, in the case of `C[C@@H]1CN([C@@H](C)CO)C(=O)c2cccc(NC(=O)c3nc4ccccc4s3)c2O[C@@H]1CN(C)Cc1ccc(Cl)c(Cl)c1` it was “inactive”; in that of `CN1CCN(C)[C@@H](CO)C1`, “inactive”; in that of `COc1ccc(S(=O)(=O)Nc2ccc3c(c2)C(=O)N([C@H](C)CO)C[C@H](C)[C@H](CN(C)C(=O)Nc2cccc4ccccc24)OCCCC[C@@H](C)O3)cc1`, “inactive”. The same measure, in the same setting: under `C[C@@H]1CN([C@@H](C)CO)C(=O)c2ccccc2-c2ccccc2CO[C@@H]1CN(C)Cc1cccc2c1OCCCO2` stands “inactive”; under `C[C@H](CO)N1C[C@H](C)[C@@H](CN(C)C(=O)CN2CCOCC2)Oc2cc(Br)ccc2S1(=O)=O`, “inactive”.
